# “And” between values parts separate entries of the source, which are not always exact repeats. Equal values may be shown once. Read-outs that look alike come from different tables or passages of the source.
# Key:
# [1] = system: TK-10 renal cancer cells; experiment: cells; conditions: Homo sapiens
# [2] = system: LOX IMVI melanoma cells; experiment: cells; conditions: Homo sapiens
# [3] = system: UACC-62 melanoma cells
# [4] = system: MALME-3M melanoma cells
# [5] = system: SN12C renal cancer cells; experiment: cells; conditions: Homo sapiens
# [6] = system: UACC-62 melanoma cells; experiment: cells; conditions: Homo sapiens
# [7] = system: UO-31 renal cancer cells; experiment: cells; conditions: Homo sapiens
# [8] = system: OVCAR-4 ovarian cancer cells; experiment: cells; conditions: Homo sapiens
# [9] = system: KM12 colon cancer cells
# [10] = system: OVCAR-5 ovarian cancer cells
# [11] = system: A549/ATCC non-small cell lung cancer cells; experiment: cells; conditions: Homo sapiens
# [12] = system: MDA-MB-231/ATCC breast cancer cells; experiment: cells; conditions: Homo sapiens
# [13] = system: UO-31 renal cancer cells
# [14] = system: PC-3 prostate cancer cells; experiment: cells
# [15] = system: RPMI-8226 leukemia cells; conditions: log10 conc -7.0; 0.1 µM
# [16] = system: 786-0 renal cancer cells
# [17] = system: ACHN renal cancer cells; experiment: cells; conditions: Homo sapiens
# [18] = system: DU-145 prostate cancer cells; experiment: cells; conditions: Homo sapiens
# [19] = system: NCI-H23 non-small cell lung cancer cells; experiment: cells; conditions: Homo sapiens
# [20] = system: SN12C renal cancer cells; conditions: log10 conc -8.0; 0.01 µM
# [21] = system: HCC-2998 colon cancer cells
# [22] = system: A549/ATCC non-small cell lung cancer cells; conditions: log10 conc -6.0; 1 µM
# [23] = system: HCT-116 colon cancer cells
# [24] = system: IGR-OV1 ovarian cancer cells; experiment: cells; conditions: Homo sapiens
# [25] = system: 786-0 renal cancer cells; experiment: cells; conditions: Homo sapiens
# [26] = system: UACC-257 melanoma cells
# [27] = read-out: Percent Growth, log10 conc -4.0
# [28] = read-out: Percent Growth, log10 conc -5.0
# [29] = read-out: Percent Growth, log10 conc -7.0
# [30] = read-out: Percent Growth, log10 conc -9.0
# [31] = read-out: Percent Growth, log10 conc -10.0
# [32] = read-out: Percent Growth, log10 conc -6.0
# [33] = read-out: Percent Growth, log10 conc -8.0
compound,measurement,setting,value
COc1cc2c(c(OC)c1OC)-c1ccc(C(C)=O)cc1C(NC(C)=O)CC2 (stereo not shown),activity at 100 µM,"[1]; TK-10, read-out: Percent Growth, log10 conc -4.0",82%
same,activity at 10 µM,"[1]; TK-10, read-out: Percent Growth, log10 conc -5.0",91%
same,activity at 0.1 µM,"[1]; TK-10, read-out: Percent Growth, log10 conc -7.0",65%
same,activity at 0.001 µM,"[1]; TK-10, read-out: Percent Growth, log10 conc -9.0",65%
same,activity at 0.0001 µM,"[1]; TK-10, read-out: Percent Growth, log10 conc -10.0",98%
same,activity at 100 µM,[2]; [27],25%
same,activity at 10 µM,[2]; [28],26%
same,activity at 0.1 µM,[2]; [29],16%
same,activity at 0.001 µM,[2]; [30],39%
same,activity at 0.0001 µM,[2]; [31],86%
same,Percent Growth,"[3]; log10 conc -6.0, 1 µM",32%
same,Percent Growth,"[3]; log10 conc -8.0, 0.01 µM",32%
same,Percent Growth,"[4]; log10 conc -7.0, 0.1 µM",37%
same,Percent Growth,"[4]; log10 conc -8.0, 0.01 µM",40%
same,activity at 100 µM,[5]; [27],17%
same,activity at 10 µM,[5]; [28],17%
same,activity at 1 µM,[5]; [32],31%
same,activity at 0.1 µM,[5]; [29],31%
same,activity at 0.01 µM,[5]; [33],33%
same,activity at 0.001 µM,[5]; [30],55%
same,activity at 0.0001 µM,[5]; [31],100%
same,activity at 100 µM,"[6]; UACC-62, read-out: Percent Growth, log10 conc -4.0",33%
same,activity at 10 µM,"[6]; UACC-62, read-out: Percent Growth, log10 conc -5.0",31%
same,activity at 1 µM,"[6]; UACC-62, read-out: Percent Growth, log10 conc -6.0",38%
same,activity at 0.1 µM,"[6]; UACC-62, read-out: Percent Growth, log10 conc -7.0",36%
same,activity at 0.01 µM,"[6]; UACC-62, read-out: Percent Growth, log10 conc -8.0",33%
same,activity at 0.001 µM,"[6]; UACC-62, read-out: Percent Growth, log10 conc -9.0",37%
same,activity at 0.0001 µM,"[6]; UACC-62, read-out: Percent Growth, log10 conc -10.0",95%
same,activity at 100 µM,"[7]; UO-31, read-out: Percent Growth, log10 conc -4.0",29%
same,activity at 10 µM,"[7]; UO-31, read-out: Percent Growth, log10 conc -5.0",26%
same,activity at 1 µM,"[7]; UO-31, read-out: Percent Growth, log10 conc -6.0",42%
same,activity at 0.1 µM,"[7]; UO-31, read-out: Percent Growth, log10 conc -7.0",52%
same,activity at 0.001 µM,"[7]; UO-31, read-out: Percent Growth, log10 conc -9.0",90%
same,activity at 0.0001 µM,"[7]; UO-31, read-out: Percent Growth, log10 conc -10.0",99%
same,activity at 100 µM,"[8]; OVCAR-4, read-out: Percent Growth, log10 conc -4.0",35%
same,activity at 10 µM,"[8]; OVCAR-4, read-out: Percent Growth, log10 conc -5.0",40%
same,activity at 1 µM,"[8]; OVCAR-4, read-out: Percent Growth, log10 conc -6.0",32%
same,activity at 0.1 µM,"[8]; OVCAR-4, read-out: Percent Growth, log10 conc -7.0",56%
same,activity at 0.01 µM,"[8]; OVCAR-4, read-out: Percent Growth, log10 conc -8.0",57%
same,activity at 0.001 µM,"[8]; OVCAR-4, read-out: Percent Growth, log10 conc -9.0",62%
same,activity at 0.0001 µM,"[8]; OVCAR-4, read-out: Percent Growth, log10 conc -10.0",92%
same,Percent Growth,"[9]; log10 conc -6.0, 1 µM",7%
same,Percent Growth,"[9]; log10 conc -7.0, 0.1 µM",7%
same,Percent Growth,"[10]; log10 conc -7.0, 0.1 µM",43% and 22%
same,Percent Growth,"[10]; log10 conc -8.0, 0.01 µM",31%
same,activity at 100 µM,"[11]; A549, read-out: Percent Growth, log10 conc -4.0",24%
same,activity at 10 µM,"[11]; A549, read-out: Percent Growth, log10 conc -5.0",27%
same,activity at 1 µM,"[11]; A549, read-out: Percent Growth, log10 conc -6.0",23%
same,activity at 0.001 µM,"[11]; A549, read-out: Percent Growth, log10 conc -9.0",91%
same,activity at 0.0001 µM,"[11]; A549, read-out: Percent Growth, log10 conc -10.0",105%
same,activity at 100 µM,"[12]; MDA-MB-231, read-out: Percent Growth, log10 conc -4.0",32%
same,activity at 10 µM,"[12]; MDA-MB-231, read-out: Percent Growth, log10 conc -5.0",14%
same,activity at 0.001 µM,"[12]; MDA-MB-231, read-out: Percent Growth, log10 conc -9.0",10%
same,activity at 0.0001 µM,"[12]; MDA-MB-231, read-out: Percent Growth, log10 conc -10.0",62%
same,Percent Growth,"[13]; log10 conc -6.0, 1 µM",25%
same,Percent Growth,"[13]; log10 conc -7.0, 0.1 µM",39%
same,Percent Growth,[13]; log10 conc -8.0,89%
same,Percent Growth,"[13]; log10 conc -8.0, 0.01 µM",51%
same,activity at 100 µM,[14]; [27],26%
same,activity at 10 µM,[14]; [28],26%
same,activity at 1 µM,[14]; [32],22%
same,activity at 0.1 µM,[14]; [29],25%
same,activity at 0.01 µM,[14]; [33],27%
same,activity at 0.001 µM,[14]; [30],33%
same,activity at 0.0001 µM,[14]; [31],97%
same,Percent Growth,[15],32%
same,Percent Growth,"[16]; log10 conc -6.0, 1 µM",20%
same,Percent Growth,"[16]; log10 conc -7.0, 0.1 µM",21%
same,activity at 100 µM,[17]; [27],20%
same,activity at 10 µM,[17]; [28],26%
same,activity at 0.01 µM,[17]; [33],61%
same,activity at 0.001 µM,[17]; [30],71%
same,activity at 0.0001 µM,[17]; [31],104%
same,activity at 100 µM,"[18]; DU-145, read-out: Percent Growth, log10 conc -4.0",22%
same,activity at 10 µM,"[18]; DU-145, read-out: Percent Growth, log10 conc -5.0",22%
same,activity at 0.001 µM,"[18]; DU-145, read-out: Percent Growth, log10 conc -9.0",55%
same,activity at 0.0001 µM,"[18]; DU-145, read-out: Percent Growth, log10 conc -10.0",94%
same,activity at 100 µM,"[19]; NCI-H23, read-out: Percent Growth, log10 conc -4.0",16%
same,activity at 10 µM,"[19]; NCI-H23, read-out: Percent Growth, log10 conc -5.0",22%
same,activity at 1 µM,"[19]; NCI-H23, read-out: Percent Growth, log10 conc -6.0",34%
same,activity at 0.1 µM,"[19]; NCI-H23, read-out: Percent Growth, log10 conc -7.0",26%
same,activity at 0.01 µM,"[19]; NCI-H23, read-out: Percent Growth, log10 conc -8.0",20%
same,activity at 0.001 µM,"[19]; NCI-H23, read-out: Percent Growth, log10 conc -9.0",23%
same,activity at 0.0001 µM,"[19]; NCI-H23, read-out: Percent Growth, log10 conc -10.0",101%
same,Percent Growth,[20],45%
same,Percent Growth,"[21]; log10 conc -6.0, 1 µM",-4%
same,Percent Growth,"[21]; log10 conc -7.0, 0.1 µM",26%
same,Percent Growth,"[21]; log10 conc -8.0, 0.01 µM",82%
same,Percent Growth,[22],28%
same,Percent Growth,"[23]; log10 conc -6.0, 1 µM",-3%
same,Percent Growth,"[23]; log10 conc -7.0, 0.1 µM",7%
same,activity at 100 µM,"[24]; IGROV-1, read-out: Percent Growth, log10 conc -4.0",5%
same,activity at 10 µM,"[24]; IGROV-1, read-out: Percent Growth, log10 conc -5.0",-2%
same,activity at 0.001 µM,"[24]; IGROV-1, read-out: Percent Growth, log10 conc -9.0",50%
same,activity at 0.0001 µM,"[24]; IGROV-1, read-out: Percent Growth, log10 conc -10.0",110%
same,activity at 100 µM,"[25]; 786-0, read-out: Percent Growth, log10 conc -4.0",10%
same,activity at 10 µM,"[25]; 786-0, read-out: Percent Growth, log10 conc -5.0",15%
same,activity at 1 µM,"[25]; 786-0, read-out: Percent Growth, log10 conc -6.0",39%
same,activity at 0.1 µM,"[25]; 786-0, read-out: Percent Growth, log10 conc -7.0",36%
same,activity at 0.001 µM,"[25]; 786-0, read-out: Percent Growth, log10 conc -9.0",51%
same,activity at 0.0001 µM,"[25]; 786-0, read-out: Percent Growth, log10 conc -10.0",96%
same,Percent Growth,"[26]; log10 conc -7.0, 0.1 µM",65% and 33%
same,Percent Growth,"[26]; log10 conc -8.0, 0.01 µM",74% and 45%

# Reference: patent US5760092A, “Allocolchinones and uses thereof” (Brandeis University, priority 1996, dated 1998)
